These results are taken from publication PMC5562746.

Sequences of proteins named here, by UniProt entry; tags and fusion partners are left off.
UniProt O14777: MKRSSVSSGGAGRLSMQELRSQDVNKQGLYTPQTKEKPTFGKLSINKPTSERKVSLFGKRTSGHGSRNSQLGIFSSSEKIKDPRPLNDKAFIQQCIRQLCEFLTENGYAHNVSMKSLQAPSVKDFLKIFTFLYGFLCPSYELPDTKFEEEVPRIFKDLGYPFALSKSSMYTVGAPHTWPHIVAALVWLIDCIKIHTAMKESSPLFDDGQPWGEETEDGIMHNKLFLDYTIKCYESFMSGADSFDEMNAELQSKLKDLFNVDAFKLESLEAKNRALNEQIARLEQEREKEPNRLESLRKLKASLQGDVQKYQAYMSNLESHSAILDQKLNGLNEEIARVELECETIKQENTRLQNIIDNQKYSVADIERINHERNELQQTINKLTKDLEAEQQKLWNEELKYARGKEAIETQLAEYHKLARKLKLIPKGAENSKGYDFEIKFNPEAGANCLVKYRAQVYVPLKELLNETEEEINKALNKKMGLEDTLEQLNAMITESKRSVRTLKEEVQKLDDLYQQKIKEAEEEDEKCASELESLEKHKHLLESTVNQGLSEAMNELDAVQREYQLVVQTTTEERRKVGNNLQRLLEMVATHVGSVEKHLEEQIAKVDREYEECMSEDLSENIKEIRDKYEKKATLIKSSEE
UniProt O60566: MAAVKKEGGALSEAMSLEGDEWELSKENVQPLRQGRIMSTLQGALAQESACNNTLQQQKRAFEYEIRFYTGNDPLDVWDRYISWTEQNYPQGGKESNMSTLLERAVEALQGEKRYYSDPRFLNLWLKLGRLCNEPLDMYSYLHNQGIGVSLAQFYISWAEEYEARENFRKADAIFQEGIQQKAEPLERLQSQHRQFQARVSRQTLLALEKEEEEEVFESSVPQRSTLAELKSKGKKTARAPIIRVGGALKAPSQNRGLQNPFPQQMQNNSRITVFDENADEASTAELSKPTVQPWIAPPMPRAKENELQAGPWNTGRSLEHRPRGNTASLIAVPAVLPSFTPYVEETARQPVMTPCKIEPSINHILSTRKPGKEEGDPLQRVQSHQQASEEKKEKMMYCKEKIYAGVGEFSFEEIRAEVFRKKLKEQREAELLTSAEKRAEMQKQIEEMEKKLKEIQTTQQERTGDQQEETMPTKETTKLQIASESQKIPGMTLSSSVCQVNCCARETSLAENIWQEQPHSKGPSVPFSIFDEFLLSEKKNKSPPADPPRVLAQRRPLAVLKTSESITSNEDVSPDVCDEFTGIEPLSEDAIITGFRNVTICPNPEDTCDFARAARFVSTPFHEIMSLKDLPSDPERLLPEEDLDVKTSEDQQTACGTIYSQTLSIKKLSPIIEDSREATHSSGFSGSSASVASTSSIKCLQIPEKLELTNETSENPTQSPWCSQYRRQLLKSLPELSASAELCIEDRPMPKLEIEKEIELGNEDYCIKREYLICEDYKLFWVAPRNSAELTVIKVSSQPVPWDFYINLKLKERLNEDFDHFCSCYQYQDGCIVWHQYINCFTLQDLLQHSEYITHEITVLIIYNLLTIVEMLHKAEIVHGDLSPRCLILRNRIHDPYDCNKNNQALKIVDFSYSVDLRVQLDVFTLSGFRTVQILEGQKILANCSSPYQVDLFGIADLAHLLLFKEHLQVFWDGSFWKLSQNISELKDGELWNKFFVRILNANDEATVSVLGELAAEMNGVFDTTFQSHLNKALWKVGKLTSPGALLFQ

For test [1], the target named is T1, GFP-Mps1 (human) (UniProt P33981).
T1 sequence: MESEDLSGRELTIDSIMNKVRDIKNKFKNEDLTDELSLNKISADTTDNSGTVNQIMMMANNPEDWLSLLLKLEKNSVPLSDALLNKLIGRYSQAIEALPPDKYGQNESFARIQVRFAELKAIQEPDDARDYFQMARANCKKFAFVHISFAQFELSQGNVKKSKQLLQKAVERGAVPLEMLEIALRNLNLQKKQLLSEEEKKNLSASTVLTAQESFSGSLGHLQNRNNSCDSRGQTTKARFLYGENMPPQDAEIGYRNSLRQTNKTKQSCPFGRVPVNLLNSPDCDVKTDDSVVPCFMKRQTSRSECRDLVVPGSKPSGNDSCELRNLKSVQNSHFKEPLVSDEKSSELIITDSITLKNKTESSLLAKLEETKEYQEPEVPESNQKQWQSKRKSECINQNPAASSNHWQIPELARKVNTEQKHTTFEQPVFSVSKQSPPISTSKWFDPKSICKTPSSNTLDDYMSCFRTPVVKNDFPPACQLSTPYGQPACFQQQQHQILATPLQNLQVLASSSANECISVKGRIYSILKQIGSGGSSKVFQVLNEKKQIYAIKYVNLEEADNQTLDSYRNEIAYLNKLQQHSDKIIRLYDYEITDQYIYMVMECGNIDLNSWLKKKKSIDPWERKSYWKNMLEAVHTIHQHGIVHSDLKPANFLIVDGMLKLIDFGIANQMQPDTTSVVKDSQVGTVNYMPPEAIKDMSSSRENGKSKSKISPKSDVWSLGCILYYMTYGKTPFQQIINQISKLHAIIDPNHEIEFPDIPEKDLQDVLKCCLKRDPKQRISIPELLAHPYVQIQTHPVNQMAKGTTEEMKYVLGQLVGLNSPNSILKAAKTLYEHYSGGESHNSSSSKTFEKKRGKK
Kind of test: co-IP; GFP-Mps1 expressed in HeLa cells, immunoprecipitated with anti-GFP antibody, blot for Hec1; controls and cells treated with reversine and/or BI-2536.

In test [2] the target is T2, Flag-tagged Mps1 (wild type) (human) (UniProt P33981).
T2 sequence: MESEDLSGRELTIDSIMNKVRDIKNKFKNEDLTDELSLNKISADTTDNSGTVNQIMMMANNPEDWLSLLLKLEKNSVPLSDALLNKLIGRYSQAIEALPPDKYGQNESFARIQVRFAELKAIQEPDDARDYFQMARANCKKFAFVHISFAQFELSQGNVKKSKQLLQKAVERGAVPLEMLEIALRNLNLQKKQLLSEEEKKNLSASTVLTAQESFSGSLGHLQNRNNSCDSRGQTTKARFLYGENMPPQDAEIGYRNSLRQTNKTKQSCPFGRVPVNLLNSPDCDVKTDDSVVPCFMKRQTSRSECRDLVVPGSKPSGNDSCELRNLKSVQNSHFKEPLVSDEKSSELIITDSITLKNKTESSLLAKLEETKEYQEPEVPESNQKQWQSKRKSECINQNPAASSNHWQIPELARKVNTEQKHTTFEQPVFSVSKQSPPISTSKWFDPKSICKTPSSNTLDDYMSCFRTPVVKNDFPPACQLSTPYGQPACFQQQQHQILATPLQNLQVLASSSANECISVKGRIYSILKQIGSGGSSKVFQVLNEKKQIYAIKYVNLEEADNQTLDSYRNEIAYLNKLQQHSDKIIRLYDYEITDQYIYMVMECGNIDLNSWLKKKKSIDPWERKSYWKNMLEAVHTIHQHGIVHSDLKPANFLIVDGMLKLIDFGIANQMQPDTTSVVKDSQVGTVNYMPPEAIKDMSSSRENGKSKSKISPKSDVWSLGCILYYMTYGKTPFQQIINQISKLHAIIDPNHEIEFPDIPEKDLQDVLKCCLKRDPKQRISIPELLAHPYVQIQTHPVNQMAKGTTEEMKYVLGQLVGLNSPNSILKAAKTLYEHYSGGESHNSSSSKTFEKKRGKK
Kind of test: co-IP; Flag-tagged Mps1 and Plk1 purified from insect cells, immunoprecipitation with anti-Flag antibody; both purified.

The target of test [3] is T3, Flag-tagged Mps1 kinase-dead (D664A) (human) (UniProt P33981).
T3 sequence: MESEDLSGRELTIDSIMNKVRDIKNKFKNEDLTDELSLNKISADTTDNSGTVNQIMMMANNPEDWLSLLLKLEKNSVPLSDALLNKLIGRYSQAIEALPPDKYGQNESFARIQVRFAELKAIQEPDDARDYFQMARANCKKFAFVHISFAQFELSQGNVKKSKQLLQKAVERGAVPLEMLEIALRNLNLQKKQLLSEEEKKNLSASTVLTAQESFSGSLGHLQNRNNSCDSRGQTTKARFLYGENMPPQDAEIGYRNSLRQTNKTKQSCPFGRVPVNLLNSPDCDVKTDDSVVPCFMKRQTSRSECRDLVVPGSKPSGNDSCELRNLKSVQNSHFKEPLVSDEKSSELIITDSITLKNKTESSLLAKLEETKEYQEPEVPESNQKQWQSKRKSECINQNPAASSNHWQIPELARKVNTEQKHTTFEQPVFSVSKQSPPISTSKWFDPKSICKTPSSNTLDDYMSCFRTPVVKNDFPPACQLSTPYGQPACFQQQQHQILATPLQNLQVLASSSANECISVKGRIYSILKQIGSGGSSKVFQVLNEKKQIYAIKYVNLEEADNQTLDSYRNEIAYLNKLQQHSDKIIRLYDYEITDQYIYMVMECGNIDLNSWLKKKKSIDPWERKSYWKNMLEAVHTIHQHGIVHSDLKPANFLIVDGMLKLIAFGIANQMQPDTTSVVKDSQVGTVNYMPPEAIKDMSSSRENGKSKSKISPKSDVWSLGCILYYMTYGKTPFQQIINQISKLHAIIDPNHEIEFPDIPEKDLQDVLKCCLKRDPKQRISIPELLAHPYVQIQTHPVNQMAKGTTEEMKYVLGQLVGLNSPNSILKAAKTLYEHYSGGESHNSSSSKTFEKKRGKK
The test is described as above.

The target in test [4] is GST-tagged Plk1, full length (human) (UniProt P53350). In words: pull-down; GST-tagged Plk1 constructs bound to glutathione-Sepharose beads incubated with mitotic cell lysates; washes with lysis buffer containing 500 mM and 150 mM NaCl; immunoblotting; only the target purified. Background: Immunoblotting shows a protein as a band on a membrane.

Results are given in words; binding and its absence hold for the method and conditions named. For some of these results: Binding seen in cells or lysates may run through a third protein. Some binding calls cover weakened binding; strength is not graded here. For some of these results: Where a sequence is shown, tags or fusion partners need not be part of it.

On to Hec1 (from UniProt O14777 1-642), for which the binding entry in test [1] is “binds”. For the molecule “Plk1 (wild type, un-labelled) (from UniProt P53350 1-603)”, the binding entry in test [2] and in test [3] was “no binding” in each case. In the case of “Plk1 kinase-dead (D194A) (from UniProt P53350 1-603)”, the binding entry in test [2] and in test [3] was “no binding” each time. Take BubR1 (from UniProt O60566 1-1050): in test [4], the binding result was “binds”.

B1: Mps1 (endogenous) (protein, UniProt P33981 1-857)
chain: MESEDLSGRELTIDSIMNKVRDIKNKFKNEDLTDELSLNKISADTTDNSGTVNQIMMMANNPEDWLSLLLKLEKNSVPLSDALLNKLIGRYSQAIEALPPDKYGQNESFARIQVRFAELKAIQEPDDARDYFQMARANCKKFAFVHISFAQFELSQGNVKKSKQLLQKAVERGAVPLEMLEIALRNLNLQKKQLLSEEEKKNLSASTVLTAQESFSGSLGHLQNRNNSCDSRGQTTKARFLYGENMPPQDAEIGYRNSLRQTNKTKQSCPFGRVPVNLLNSPDCDVKTDDSVVPCFMKRQTSRSECRDLVVPGSKPSGNDSCELRNLKSVQNSHFKEPLVSDEKSSELIITDSITLKNKTESSLLAKLEETKEYQEPEVPESNQKQWQSKRKSECINQNPAASSNHWQIPELARKVNTEQKHTTFEQPVFSVSKQSPPISTSKWFDPKSICKTPSSNTLDDYMSCFRTPVVKNDFPPACQLSTPYGQPACFQQQQHQILATPLQNLQVLASSSANECISVKGRIYSILKQIGSGGSSKVFQVLNEKKQIYAIKYVNLEEADNQTLDSYRNEIAYLNKLQQHSDKIIRLYDYEITDQYIYMVMECGNIDLNSWLKKKKSIDPWERKSYWKNMLEAVHTIHQHGIVHSDLKPANFLIVDGMLKLIDFGIANQMQPDTTSVVKDSQVGTVNYMPPEAIKDMSSSRENGKSKSKISPKSDVWSLGCILYYMTYGKTPFQQIINQISKLHAIIDPNHEIEFPDIPEKDLQDVLKCCLKRDPKQRISIPELLAHPYVQIQTHPVNQMAKGTTEEMKYVLGQLVGLNSPNSILKAAKTLYEHYSGGESHNSSSSKTFEKKRGKK
Regarding B1, the binding result in test [4] is “no binding”.
